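48-hour exposure; five concentrations; linearly interpolated endpoints. Abbreviation: GI50, concentration required for 50% inhibition of growth. At the TGI there is no net growth.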 Square brackets hold non-standard residues; d marks the D form. Peptide text beside a SMILES is read from it. * marks the point of attachment. ξ: configuration not given here. X34 = O=C(OCc1ccccc1)[C@@H]1CCC[C@H]1N*; Fmoc = O=C(OCC1c2ccccc2-c2ccccc21)*; ξW = NC(Cc1c[nH]c2ccccc12)C(=O)O; ξF = NC(Cc1ccccc1)C(=O)O; Boc = CC(C)(C)OC(=O)*; ξK = NCCCCC(N)C(=O)O; ξT = CC(O)C(N)C(=O)O; tBu = CC(C)(C)*
System: NCI-H322M lung
Assay: NCI-60 cell line screen, 48 h

| Structure (SMILES) | GI50 [µM] | TGI [µM] |
| --- | --- | --- |
| CC(O)CN(CCN(CC(C)O)CC(C)O)CC(C)O.O=[N+]([O-])O.[Cu+2] (configuration not stated) | 29.6 | > 100 |
| CC(C)(C)c1ccc(-c2nnc(SCc3ccc(Cl)cc3)n2-c2cccc(C(F)(F)F)c2)cc1 | – | > 100 |
| COc1ccc2c(c1)CCC(CN1CCN(CCOC(c3ccc(F)cc3)c3ccc(F)cc3)CC1)=C2 | – | > 100 |
| CCCCc1ccc(N2C(=O)c3cc(C)cnc3S2(=O)=O)cc1 | – | > 100 |
| O=[N+]([O-])c1ccc2[nH]cc(-c3c4ccccc4cc4[nH]c5ccc([N+](=O)[O-])cc5c34)c2c1 | 1.84 | 3.98 |
| Cc1ccc(S(=O)(=O)OC2CN3CCC2CC3)cc1 (configuration not stated) | – | > 100 |
| Cc1cn2c(/C=C3/C(=O)Nc4ccccc43)c(-c3ccccc3)nc2s1 | – | > 100 |
| CC(CN(CP(=O)([O-])[O-])CP(=O)([O-])[O-])N(CP(=O)([O-])[O-])CP(=O)([O-])[O-].N[C@@H]1CCCC[C@@H]1N.[Pt+2] (configuration not stated) | > 100 | > 100 |
| COC(=O)c1ccc(/C=C/C2=CC(=O)C=CC2=O)cc1 | – | > 100 |
| CCCCc1cc2c(cc1O)CCC1C2CC[C@@]2(C)C1CC[C@@H]2O (some centres not stated) | – | 40.3 |
| O=C1/C(=C/c2ccc(O)cc2)CCC1CNc1ccc(Cl)cc1 (configuration not stated) | – | 24.3 |
| CC(OC(C)(C)C)C(NC(=O)C(CCCCNC(=O)OC(C)(C)C)NC(=O)C(Cc1c[nH]c2ccccc12)NC(=O)C(Cc1ccccc1)NC(=O)OCC1c2ccccc2-c2ccccc21)C(=O)NC(Cc1ccccc1)C(=O)N[C@@H]1CCC[C@H]1C(=O)OCc1ccccc1 (some centres not stated) (Fmoc-[ξF][ξW][ξK](Boc)[ξT](tBu)[ξF]-X34) | – | > 100 |
| COC(=O)CP1(=O)OC2C(C3CCC2(C)C3(C)C)N1c1cc(C(F)(F)F)cc(C(F)(F)F)c1 (configuration not stated) | – | > 100 |
| C=C1C(=O)OC2C(C)C3C=CC(=O)[C@@]3(C)C(OC(=O)/C(C)=C/C)C1[C@@H]2OC(C)=O (some centres not stated) | – | 3.9 |
| Cc1nn(-c2ccccc2)c(C)c1/C=N/NC(=O)c1sc(=S)n(-c2ccc(Cl)cc2)c1N | – | > 100 |
| Cc1c2cc[n+](C)cc2c(COC2OC(CO)C(O)C2O)c2c3ccccc3n(C)c12 (configuration not stated) | – | > 100 |
| COc1ccc(N=NN2CCCC2)cc1 | – | > 100 |
| COc1cc(/C=C\c2ccc(SC)cc2)cc(OC)c1OC | – | > 100 |
| c1ccc(COc2nc3ccc(C45CC6CC(CC(C6)C4)C5)cc3[nH]2)cc1 | – | > 100 |
| C[N+](C)(C)CCCCCc1c2nc(c(CCCCC[N+](C)(C)C)c3ccc([nH]3)c(CCCCC[N+](C)(C)C)c3ccc([nH]3)c(CCCCC[N+](C)(C)C)c3nc1C=C3)C=C2 | – | > 100 |
| NS(=O)(=O)c1ccc(CNC(=S)NC(=O)Nc2ccc(Cl)c(Cl)c2)cc1 | – | > 100 |
| Cc1ccc(S(=O)/C=C(\NC(=O)OCc2ccccc2)C(F)(F)F)cc1 (configuration not stated) | – | > 100 |
| Cc1cccc(Nc2cn(CCOc3ccccc3)c(=O)[nH]c2=O)c1 | – | > 100 |

| Structure (SMILES) | GI50 [µM] | TGI [µM] |
| --- | --- | --- |
| CCOC(=O)Cc1csc(/N=C\c2c(O)c3ccccc3oc2=O)n1 | – | > 100 |
| CCOC(=O)Nc1ccc(S(=O)(=O)Nc2ccc(Br)cc2)cc1 | – | > 100 |
| C[Si](C)(C)/C(Br)=C\CCN1C(=O)CCC1O (configuration not stated) | – | > 100 |
| O=C1NC(=NCc2ccccn2)S/C1=C\c1ccc2ncccc2c1 | 7.95 | > 25 |
| CSC(=S)N/N=C(\C)c1ccccn1 | 0.133 | 14.1 |
| CCc1nnc2sc(-c3ccc(-c4ccc(Cl)cc4Cl)o3)nn12 | – | > 100 |
| C[Si](C)(C)C#C[I+]c1ccccc1 | – | > 100 |
| CCOC(=O)[C@H]1Nc2ccc(O)cc2C2c3ccccc3CC21 (some centres not stated) | – | > 100 |
| CCOC(=O)C1(C(=O)OCC)C[C@H]2CON=C2[C@@H]1c1ccc(C(F)(F)F)cc1 | – | > 100 |
| CC(=O)c1ccc2c(c1)CC1(C2)Cc2cc3c(cc2C1)C(=O)CC3 (configuration not stated) | – | 19.9 |
| O=C(CCN1CCCC1)Nc1ccc2c(NCCCCc3ccccc3)c3ccccc3nc2c1 | 1.15 | 2.36 |
| CCCCCCCCCCCCC(Br)C(=O)SCCNC(=O)CCNC(=O)[C@@H](O)C(C)(C)COP(=O)(O)OP(=O)(O)OCC1OC(n2cnc3c(N)ncnc32)C(O)C1OP(=O)(O)O (some centres not stated) | – | > 56.5 |
| O=C(O)CCCN1CCCCC1 | – | > 100 |
| COc1cc2c(/C=C3\C(=O)Nc4ccc(Br)cc43)c(Cl)n(C)c2cc1C | 2.46 | 10.4 |
| O=C(OCCOCCOC(=O)c1c[nH]cc1-c1ccccc1)c1c[nH]cc1-c1ccccc1 | – | 75.5 |
| CCC(C#N)N(Cc1cccc(CN(C(C)=O)C(C#N)CC)c1)C(C)=O (configuration not stated) | – | > 100 |
| COc1ccc2c(CNCCCCO)cc3cc4c(cc3c2c1)OCO4 | 2.43 | 7.6 |
| COc1ccc(-n2c(N)c(C(=O)NCCN3CCOCC3)c3nc4ccccc4nc32)cc1OC | 9.94 | > 100 |
| Cn1cccc1-c1cc(-c2ccc(Br)cc2)nc(N)c1C#N | > 100 | > 100 |
| CC1CCN(c2nnc(Cl)cc2C(=O)c2ccccc2)CC1 | – | > 100 |
| CC(C)(C)CC(C)(C)Cc1ccc(OCCOCC[N+](C)(C)Cc2ccccc2)cc1 | 3.91 | 17.4 |
| CC1=C(C)C(=O)C(C(C)C2=C(C)C(=O)C(C)=C(C)C2=O)=C(C)C1=O | > 100 | > 100 |
